{
  "source": "PubChem BioAssay AID624296",
  "about": "(National Center for Advancing Translational Sciences (NCATS), 2012)",
  "note": "The whole screen tested about 350,000 compounds, of which about 9,900 (2.8%) were called active. This list was built around the results that the source calls inconclusive (neither active nor inactive); the mix of calls is not that of the screen. Calls follow the shape of the dose curve; as a rule, active = well fitted activation curve with a large enough effect; inconclusive = small, poorly fitted or top-dose-only effect; inactive = no such curve, though single readings can be large or run the other way. No potency is given beside an inconclusive call; the fits are too rough. Potency is read from the fitted curve at half-maximal effect; tags tell the direction and shape of the fitted curve.",
  "data": [
    {"assay": "A quantitative high throughput screen for small molecules that induce DNA re-replication in MCF 10a normal breast cells; also: nearly all actives have a fitted effect of over 50% in size; as to activity, positive = re-replication: % of control where 0% means no effect.", "details": "MCF 10A DNA re-replication, Hoechst nuclear intensity, 48 h; activity, positive = re-replication: at 46.1 µM (top of the series)", "values": [
      {"smiles": "CC(C)(C)c1ccc(-c2nc(-c3ccncc3)no2)cc1", "Potency": "inconclusive [activator, single point]"},
      {"smiles": "Cc1cc(C)c(S(=O)(=O)NCC(c2ccco2)N2CCc3ccccc3C2)c(C)c1", "note": "(centres undefined)", "Potency": "inconclusive [activator, partial curve, poor fit]"},
      {"smiles": "Cn1c(N)c(C(=O)COC(=O)c2cc(S(=O)(=O)N3CCCCC3)ccc2Cl)c(=O)n(C)c1=O", "Potency": "inconclusive [activator, single point]"},
      {"smiles": "COc1ccc(C(C#N)=Cc2ccc(NC(C)=O)cc2)cc1", "Potency": "active: 16.4 µM"},
      {"smiles": "COc1ccc(-n2c(CCC(=O)O)ccc2-c2ccccc2)cc1", "activity, positive = re-replication": "inactive: 2.31%"},
      {"smiles": "Cc1ccc(C)c(NC(=O)COC(=O)Cn2c(C)csc2=O)c1", "Potency": "inconclusive [activator, full curve, poor fit]"},
      {"smiles": "CC(=O)C1=C(C)NC(SCC(N)=O)=C(C#N)C1c1cccnc1", "note": "(centres undefined)", "Potency": "active: 20.6 µM"},
      {"smiles": "COCCCNC(=O)c1cc2c(=O)n3cccc(C)c3nc2n(C(C)C)c1=N", "Potency": "inconclusive [activator, full curve, poor fit]"},
      {"smiles": "CCN1CCN(c2ccc(S(=O)(=O)N3CCCCC3)cc2NC(=O)c2ccc(F)cc2)CC1", "Potency": "active: 7.31 µM"},
      {"smiles": "O=C(NCC1COc2ccccc2O1)c1ccc(NC(=O)C(c2ccccc2)c2ccccc2)cc1", "note": "(centres undefined)", "Potency": "inconclusive [activator, single point]"},
      {"smiles": "COc1ccc(C2CC(=O)c3cnc(Nc4cc(C)cc(C)c4)nc3C2)cc1", "note": "(centres undefined)", "Potency": "inconclusive [activator, single point]"},
      {"smiles": "COc1ccc(/C=N/NC(=O)Cc2csc(Nc3cccc(C(F)(F)F)c3)n2)c(OC)c1", "Potency": "inconclusive [activator, partial curve]"},
      {"smiles": "Cc1cc(C(=O)CS(=O)(=O)c2ccc(F)cc2)cc(C)c1O", "activity, positive = re-replication": "inactive: -2.99%"},
      {"smiles": "Nc1sc(-c2ccccc2)n[n+]1Cc1cccc2cccnc12", "activity, positive = re-replication": "inactive: 23.6%"},
      {"smiles": "O=C(CN1CCN(Cc2ccc(Cl)cc2)CC1)N/N=C/c1ccncc1", "Potency": "inconclusive [activator, partial curve, poor fit]"},
      {"smiles": "Cc1ccc(S(=O)(=O)N2CCCC2C(=O)NCc2ccncc2)cc1", "note": "(centres undefined)", "activity, positive = re-replication": "inactive: 8.71%"},
      {"smiles": "COc1cc2c(cc1OC)-c1cc(Nc3cccc(C)c3)nc(=O)n1CC2", "Potency": "inconclusive [activator, partial curve, poor fit]"},
      {"smiles": "O=C(c1cc(-c2ccccc2)nc2ccccc12)N1CCCc2ccccc21", "activity, positive = re-replication": "inactive: 13.2%"},
      {"smiles": "OCCN1CCN(CCSc2ccccc2)CC1", "Potency": "inconclusive [activator, partial curve, poor fit]"},
      {"smiles": "CCc1ccc(NC(=O)C(C)OC(=O)CCN2C(=O)C3CC=CCC3C2=O)cc1", "note": "(centres undefined)", "Potency": "inconclusive [activator, single point]"},
      {"smiles": "COc1ccc2c(c1)/C(=C/c1cc(OC)c(OC)c(OC)c1)C(=O)N2", "Potency": "inconclusive [activator, full curve, poor fit]"},
      {"smiles": "CCNc1nc(OCC)nc(N2CCC(Cc3ccccc3)CC2)n1", "activity, positive = re-replication": "inactive: 7.48%"},
      {"smiles": "CCOc1ccccc1N1CCN(C(=O)c2c(-c3c(F)cccc3Cl)noc2C)CC1", "Potency": "inconclusive [activator, partial curve, poor fit]"},
      {"smiles": "COc1cc(OC)cc(C(=O)NC(=S)N(Cc2ccccc2)C(C)C)c1", "activity, positive = re-replication": "inactive: 7.1%"},
      {"smiles": "CCOc1cc(/C=N/NC(N)=O)cc(Br)c1OCC(=O)Nc1cccc2ccccc12", "Potency": "inconclusive [activator, partial curve, poor fit]"},
      {"smiles": "CCc1ccc(-n2c(Cc3ccccc3)n[nH]c2=S)cc1", "activity, positive = re-replication": "inactive: -2.84%"},
      {"smiles": "Cc1nn(Cc2ccccc2Cl)c(C)c1C(=O)NCc1ccco1", "activity, positive = re-replication": "inactive: 2.51%"},
      {"smiles": "CCC(=O)N1CCN(c2ccc(NC(=O)COc3ccc(C)cc3C)cc2)CC1", "activity, positive = re-replication": "inactive: 13%"},
      {"smiles": "COC(=O)c1ccc2c(=O)n(NC(=O)C(c3ccccc3)c3ccccc3)c(=S)[nH]c2c1", "activity, positive = re-replication": "inactive: 10.4%"},
      {"smiles": "O=C(/C=C/c1ccc([N+](=O)[O-])cc1)NCc1ccccn1", "Potency": "inconclusive [activator, single point]"},
      {"smiles": "Cc1cc([N+](=O)[O-])ccc1NC(=O)Nc1ccc(F)cc1F", "Potency": "inconclusive [activator, single point]"},
      {"smiles": "O=C1CC(c2ccccc2)C(C(=O)Nc2ccccc2F)N1", "note": "(centres undefined)", "activity, positive = re-replication": "inactive: 7.17%"},
      {"smiles": "CCc1cccc2c(SC(C)C(=O)NCC3CCCO3)nc(-c3ccccc3)nc12", "note": "(centres undefined)", "Potency": "inconclusive [activator, partial curve]"},
      {"smiles": "COc1ccc2c(c1)C(=O)CC(c1ccccc1F)O2", "note": "(centres undefined)", "Potency": "inconclusive [activator, single point]"},
      {"smiles": "CCOc1ccccc1C(=O)Nc1cc2c(cc1N1CCCC1)n(CC)c(=O)n2CC", "Potency": "inconclusive [activator, partial curve, poor fit]"},
      {"smiles": "CCOc1cc(-c2nnc(NC(=O)c3ccco3)o2)cc(OCC)c1OCC", "Potency": "inconclusive [activator, single point]"},
      {"smiles": "COc1cccc(N2CCN(C(C)C(=O)NC34CC5CC(CC(C5)C3)C4)CC2)c1", "note": "(centres undefined)", "Potency": "inconclusive [activator, single point]"},
      {"smiles": "CC(=O)Nc1cccc(NCC(=O)Nc2cc(S(=O)(=O)N3CCCCC3)ccc2Cl)c1", "Potency": "inconclusive [activator, partial curve, poor fit]"},
      {"smiles": "Cc1cccc(-n2c3nc(=O)[nH]c(=O)c-3cc3cc([N+](=O)[O-])ccc32)c1", "Potency": "inconclusive [activator, full curve, poor fit]"},
      {"smiles": "COc1ccc2nc(NC(=O)c3sc4nc(C)cc(C)c4c3N)sc2c1", "Potency": "inconclusive [activator, full curve, poor fit]"},
      {"smiles": "O=C(NCc1ccccc1)c1noc2c1CCCC2", "Potency": "inconclusive [activator, single point]"},
      {"smiles": "CCOc1ccc2nc(NC(=O)CSc3ccccc3)sc2c1", "Potency": "inconclusive [activator, single point]"},
      {"smiles": "COc1ccccc1/C=N/NC(=S)NCc1ccco1", "activity, positive = re-replication": "inactive: -2.42%"},
      {"smiles": "COc1ccc2sc(-c3ccccc3OC)c(-c3ccc(O)cc3)c2c1", "Potency": "active: 16.4 µM"},
      {"smiles": "CCN(CC)S(=O)(=O)c1cccc(NC(=O)c2cncc(Br)c2)c1", "activity, positive = re-replication": "inactive: -1.08%"},
      {"smiles": "Cc1ncc(S(=O)(=O)c2ccc(Cl)cc2)c(-c2ccccc2)n1", "Potency": "inconclusive [activator, partial curve, poor fit]"},
      {"smiles": "O=C(COc1ccccc1F)N1CCCc2ccccc21", "Potency": "inconclusive [activator, single point]"},
      {"smiles": "NNC(=O)c1cc(-c2cccs2)nc2ccccc12", "Potency": "inconclusive [activator, single point]"},
      {"smiles": "COc1cccc(-n2nc(-c3ccnn3-c3cccc(Cl)c3)c(=O)n(C)c2=O)c1", "activity, positive = re-replication": "inactive: 3.27%"},
      {"smiles": "Cc1ccc(Nc2nnc(SCC(=O)Nc3cccnc3Cl)s2)cc1C", "Potency": "inconclusive [activator, partial curve, poor fit]"},
      {"smiles": "CC(=O)c1ccc(N2CCN(C(=O)c3nn(C)c4c3CS(=O)(=O)c3ccccc3-4)CC2)cc1", "Potency": "inconclusive [activator, partial curve, poor fit]"},
      {"smiles": "O=C(CN(Cc1ccccc1F)S(=O)(=O)c1ccc(Cl)cc1)NCCC1=CCCCC1", "Potency": "inconclusive [activator, single point]"},
      {"smiles": "Cc1cc(C(=O)CSc2n[nH]c(N)n2)c(C)n1-c1cccc(F)c1", "Potency": "inconclusive [activator, single point]"},
      {"smiles": "O=S(=O)(NCc1ccc(C(F)(F)F)cc1)c1ccc(-n2cnnn2)cc1", "activity, positive = re-replication": "inactive: -8.21%"},
      {"smiles": "CCOCCCNC(=S)NCCCNc1nc2c(C)cc(C)cc2cc1C#N", "activity, positive = re-replication": "inactive: -16.6%"},
      {"smiles": "COc1ccc(NC(=S)N/N=C/c2ccc(F)c(F)c2)cc1", "Potency": "inconclusive [activator, partial curve]"},
      {"smiles": "O=C(c1ccc(COc2c(F)c(F)c(F)c(F)c2F)o1)N1CCN(Cc2ccc3c(c2)OCO3)CC1", "Potency": "inconclusive [activator, single point]"},
      {"smiles": "COc1ccc(Nc2nnc(-c3ccc(O)cc3)c3ccccc23)cc1C(N)=O", "Potency": "inconclusive [activator, partial curve, poor fit]"},
      {"smiles": "O=C(NC(=S)NCCN1CCOCC1)c1ccccc1Cl", "activity, positive = re-replication": "inactive: -0.673%"},
      {"smiles": "CCC(CC)C(=O)N1CC(=O)Nc2ccc(Br)cc2C1c1ccccc1", "note": "(centres undefined)", "Potency": "inconclusive [activator, single point]"},
      {"smiles": "O=C(Oc1ccccc1)c1cccc(N2C(=O)CCC2=O)c1", "Potency": "inconclusive [activator, single point]"},
      {"smiles": "C=CCNc1nnc(SC2CC(=O)N(c3ccc(OC)cc3)C2=O)s1", "note": "(centres undefined)", "Potency": "active: 5.8 µM"},
      {"smiles": "CCCCCCCCCCOC(=O)Cn1c(COc2cccc(C)c2)[n+](C)c2ccccc21", "Potency": "inconclusive [activator, single point]"},
      {"smiles": "CCc1ccc(S(=O)(=O)n2c(C)nc3ccccc32)cc1", "Potency": "inconclusive [activator, single point]"},
      {"smiles": "CN(C)C(=O)c1c(C(F)(F)F)nn(C)c1Cl", "activity, positive = re-replication": "inactive: -1.57%"},
      {"smiles": "O=C(NNS(=O)(=O)c1ccccc1[N+](=O)[O-])c1ccccc1[N+](=O)[O-]", "activity, positive = re-replication": "inactive: -13.5%"},
      {"smiles": "COc1ccc(/C(=N/Nc2ncnc3ccccc23)C(=O)O)cc1", "activity, positive = re-replication": "inactive: 15%"},
      {"smiles": "CC(=O)N/C(=C\\c1ccccc1)C(=O)OCc1ccc(C)cc1", "Potency": "inconclusive [activator, partial curve, poor fit]"},
      {"smiles": "COc1ccc(C2=NOC(Cn3nc(-c4ccccc4)cc3C(=O)NCc3ccccc3OC)C2)cc1", "note": "(centres undefined)", "Potency": "inconclusive [activator, single point]"}
    ]}
  ]
}
